According to the supplement of paper PMC8007513:
Structures can show the parent of a compound that is named as a salt. ± gives the standard error. The whole screen tested about 1,300 compounds, of which about 130 (10%) showed an effect of 50% or more. This is a selection; strong and weak results do not stand in their true shares.

System: Trichoderma virens ATCC 9645
Test: growth yield (OD600) with compound + IPBC relative to untreated control; higher = less growth inhibition
Details: compound concentration: 100 uM, IPBC concentration: 200 ng/ml
In short: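 Trichoderma virens ATCC 9645 spores at 15,000 spores ml^−1 in potato dextrose broth were exposed in 96-well plates to library compounds at 100 μM final, with or without a biocide at 200 ng ml^−1. After growth at 30 °C, OD600 was read at 40 h and 72 h. Values are growth relative to the control without either agent, averaged over duplicate screens.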

SMILES	growth yield (40 h) [%]	growth yield (72 h) [%]
CCCCc1nc(Cl)c(CO)n1Cc1ccc(-c2ccccc2-c2nnn[nH]2)cc1 [Losartan] + CCCCNC(=O)OCC#CI [3-iodo-2-propynyl butylcarbamate (IPBC)]	98.3 ± 6.2	96.7 ± 5.7
CC(C)NCC(O)c1ccc(O)c(O)c1 (single isomer, unassigned; (-)) [(-)-Isoproterenol hydrochloride] + CCCCNC(=O)OCC#CI [3-iodo-2-propynyl butylcarbamate (IPBC)]	86.9 ± 2.7	89.9 ± 1.6
O=C1C(O)=C([C@H]2CC[C@H](c3ccc(Cl)cc3)CC2)C(=O)c2ccccc21 [Atovaquone] + CCCCNC(=O)OCC#CI [3-iodo-2-propynyl butylcarbamate (IPBC)]	92.1 ± 14	96.5 ± 7.5
CC(C)C[C@H]1C(=O)N2CCC[C@H]2[C@]2(O)O[C@](NC(=O)[C@@H]3C=C4c5cccc6[nH]c(Br)c(c56)C[C@H]4N(C)C3)(C(C)C)C(=O)N12 [Bromocryptine mesylate] + CCCCNC(=O)OCC#CI [3-iodo-2-propynyl butylcarbamate (IPBC)]	106.3 ± 0.79	110 ± 2.8
Cc1ccccc1C(OCCN(C)C)c1ccccc1 (stereo not given) [Orphenadrine hydrochloride] + CCCCNC(=O)OCC#CI [3-iodo-2-propynyl butylcarbamate (IPBC)]	81.48 ± 0.79	94.91 ± 0.94
NC(=O)NC1NC(=O)NC1=O (stereo not given) [Allantoin] + CCCCNC(=O)OCC#CI [3-iodo-2-propynyl butylcarbamate (IPBC)]	83.71 ± 0.48	89.2 ± 2.2
COC(=O)C1=C(C)NC(C)=C(C(=O)OCC(C)C)C1c1ccccc1[N+](=O)[O-] (stereo not given) [Nisoldipine] + CCCCNC(=O)OCC#CI [3-iodo-2-propynyl butylcarbamate (IPBC)]	41.3 ± 8.3	34.71 ± 0.1
COC(=O)C1=C(C)NC(C)=C(C(=O)OCCN(C)Cc2ccccc2)C1c1cccc([N+](=O)[O-])c1 (stereo not given) [Nicardipine hydrochloride] + CCCCNC(=O)OCC#CI [3-iodo-2-propynyl butylcarbamate (IPBC)]	73.1 ± 1.6	94.7 ± 2.2
CN1[C@@H]2CC[C@H]1C[C@@H](OC(=O)C(CO)c1ccccc1)C2 (stereo not given in full) [Atropine sulfate monohydrate] + CCCCNC(=O)OCC#CI [3-iodo-2-propynyl butylcarbamate (IPBC)]	89.3 ± 2.2	93.97 ± 0.21
CN1CCN(c2c(F)cc3c(=O)c(C(=O)O)cn4c3c2SCC4)CC1 [Rufloxacin] + CCCCNC(=O)OCC#CI [3-iodo-2-propynyl butylcarbamate (IPBC)]	90.2 ± 3.8	92.29 ± 0.42
